± gives the standard deviation of the averaged measurements. The list shows a part of the results.
tested on: PfAP2-I AP2 domain 3 (GST-tagged); test: gcPBM binding intensity (ln(normalized median fluorescence intensity)); higher = stronger DNA binding
In short: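 For binding intensity, the highest Masliner-normalised natural-log median intensity across replicate spots of either probe orientation was taken. Protein bound to the array was stained with Alexa488 anti-GST antibody and scanned at 488 nm. The protein, GST-tagged P. falciparum DNA-binding domains from E. coli at about 25 μg on average, had been applied for 1 h to an Agilent 4 × 180k array of primer-extended double-stranded 36-bp intergenic genomic probes and negative controls.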

Row | Sequence | gcPBM binding intensity (ln)
1 | AAAAAATAAATAAATACACACAAATATATATATATA [CACACA_site2543] | 9.24 ± 0.25
2 | TAATATGTATATAAAAGTACAGACGATTATAATTAT [XGTACX_site173] | 7.91 ± 0.33
3 | TGGTAATCCACATACACACACACATACACATATATA [CACACA_site2727] | 8.24 ± 0.38
4 | AAGAAAAAAAAAATTACACACTGCGCAGATACACAA [CACACA_site1289] | 8.04 ± 0.5
5 | CTTATATATTGCCCTTCACACACACCCATATATATA [CACACA_site8795] | 9.07 ± 0.35
6 | AAGTATGGAAAGGAATATAAATTAATACTTTCATTG [XGTACX_negctrl_site131] | 7.44 ± 0.73
7 | TACAAAAAGAATGAAAAATATATAATAAAAATAAAA [XGTACX_negctrl_site159] | 7.61 ± 0.54
8 | AAGACAACATAAATATGTACATATATTTATTATTTT [XGTACX_site1792] | 7.61 ± 0.35
9 | CACATACCTATATACACACACAAAATAATAAAATAA [CACACA_site7150] | 7.93 ± 0.15
10 | TATATATATATATTGACACACATGTATTTCAATATT [CACACA_site2832] | 9.27 ± 0.27
11 | AGAATGGATTAGCTAGCACACACAAAAAAAAAAAAA [CACACA_site8995] | 7.97 ± 0.67
12 | ACTAATATTTTATAAAGTACAAATTAATAAAATTCA [XGTACX_site5817] | 7.58 ± 0.12
13 | GTCTAAAAATAAAAAGTGCATTTGTTTAATATTTTG | 10.3 ± 0.14
14 | ATTAAAACAAATATGTGTACATAAAAATATATATAT [XGTACX_site8394] | 8.69 ± 0.33
15 | TATTATTATTATTATTTTAAAAGAAATAAAAATATG [XGTACX_negctrl_site119] | 8.03 ± 0.82
16 | TGATTGTATTAAAATGCACACATATCAAGAGGAATT [CACACA_site7985] | 8.955 ± 0.007
17 | TTAATTTTTTTTTTTTGTACTCATATGTAATTCATC [XGTACX_site3071] | 7.88 ± 0.27
18 | TCGATTAAAACACAAAAATATAAATACATTGATAAA [TGCATGCA_negctrl_site523] | 7.4 ± 0.52
19 | TTAATAAATATGTTTACACACGAAAATACATTTTTT [CACACA_site8245] | 7.71 ± 0.48
20 | TTAAAAGTTATGGATACACACATATAAATATAGATT [CACACA_site7175] | 7.57 ± 0.42
21 | ATTTTAATTTTTTAAGTATTATATGAATATTTATTA [TGCATGCA_negctrl_site142] | 7.26 ± 0.38
22 | CACACGCACGAACACACACACACACGCGCACATATA [CACACA_site6304] | 8.57 ± 0.43

Row | Sequence | gcPBM binding intensity (ln)
23 | TAATTTTCATAATTTTGTACTTAACGTTTTACCTTG [XGTACX_site8048] | 7.57 ± 0.73
24 | ACATATATATATATATATATATATATATATTCTTAA [CACACA_negctrl_site930] | 8.52 ± 0.27
25 | TTACTTTAACCTTCTCGTACTTATTTACTTTATTCT [XGTACX_site7801] | 8 ± 0.73
26 | TTTTATTATTCTTCTCTCTTATATATATATATATAT [CACACA_negctrl_site646] | 9.2 ± 0.79
27 | TTTCAAAGGAAATGGTGTACACAATTTTTCCTTTTT [XGTACX_site2340] | 7.66 ± 0.41
28 | ACTGTGGTATAAAGTTGTACATGTTTTTATATATTT [XGTACX_site5257] | 8.09 ± 0.49
29 | TACTTTTATATGAATACACACAGGAATATATATATG [CACACA_site3568] | 7.75 ± 0.48
30 | ATAACATAGGCAATCACACATATCATTAAGGTGTCA [CACACA_site5233] | 7.53 ± 0.59
31 | GTGCATAAATCATACACACACACATATATAAATATA [CACACA_site7188] | 10.5 ± 0.65
32 | AAAGTTTTTATAAAAAAAAAAATAAATACCATATAT [XGTACX_negctrl_site113] | 7.87 ± 0.64
33 | GTGTTTTTATGTGAATGTACATATTTACTATCACAC [XGTACX_site2388] | 8.44 ± 0.33
34 | AAAAGTTTAAGTTTTCGAAAATTTACCAAAAAAAAA [CACACA_negctrl_site1644] | 7.67 ± 0.74
35 | TAGAATTAAGTTATTGCACACAGGAAAAGTTTCATA [CACACA_site1634] | 10.4 ± 0.4
36 | AATCCTTACGAACACACACACACGAATAAATAAAAA [CACACA_site6363] | 8.19 ± 0.42
37 | TCTTCGAAACTATCACTCTCACAATTCATTTATTTT [TGCATGCA_negctrl_site156] | 7.59 ± 0.63
38 | ATAAATAAGAAAAATTGTACAATATTTTTTAGGATA [XGTACX_site3163] | 7.75 ± 0.17
39 | ATATATATATATATATCATTTATTTAAAAATTTTTT [TGCATGCA_negctrl_site228] | 9.43 ± 0.17
40 | CTCATTTTTGTACAGGTGCACTTATCGTTACACTAT | 10.7 ± 0.3
41 | AACACATAAAAAAGGTGTACCATAAAATATACATAC [XGTACX_site4478] | 7.97 ± 0.6
42 | CTGTGTTTTGGTTGTACACACGCTACATTATATATT [CACACA_site5487] | 8.835 ± 0.021
43 | ATATACATTAAATGAACACACATAAATAAATTACAT [CACACA_site2852] | 7.8 ± 0.47
44 | TTTTAATTTTGTTGTTGTACAAATAACATGTGAGGG [XGTACX_site4401] | 8.59 ± 0.15

Row | Sequence | gcPBM binding intensity (ln)
45 | TATTTTATCATTTTTTTTATGTCTTTATTTCACTTG [CACACA_negctrl_site1398] | 7.61 ± 0.8
46 | ATATACACATTAATAACACACAATATGATAACAAAT [CACACA_site7670] | 7.96 ± 0.38
47 | ATATGAGTATAAAAATGTACGGAGCAACTAAATATA [XGTACX_site620] | 7.96 ± 0.67
48 | TATAAATATGTATATGCATGTGGAATATATAATTAA [TGCATGCA_site226] | 8.26 ± 0.52
49 | AAATAAAACAGACACACACACACATACACAAAAAAA [CACACA_site7753] | 7.97 ± 0.32
50 | TGTCACCTATTTTTTTGTACGTATGTCCATTTTTTT [XGTACX_site4368] | 8.1 ± 0.64
51 | ATTACAACCACATTGACATGCAAATGTAGAGGGGGA [TGCATGCA_site694] | 8.92 ± 0.16
52 | TTTATGTAATATACATGTACAGAATATAAAATATAT [XGTACX_site6906] | 7.87 ± 0.59
53 | TTAACTTCTTTAAAATGTACATATATTAAATAATAA [XGTACX_site3391] | 7.74 ± 0.28
54 | AAAAAATATAGATGCACACACAAAAAAACAAATTAA [CACACA_site6718] | 8.71 ± 0.13
55 | GTATTATTATTTTATGCATGTACATTGAATTATATT [TGCATGCA_site34] | 8.26 ± 0.44
56 | ATATATATATATCAGAGTACATTCTTTAAAATATAT [XGTACX_site5915] | 9.43 ± 0.11
57 | AGATTTTGAAATTATAAAAAAATTTCACTTCATTTA [CACACA_negctrl_site888] | 7.3 ± 0.57
58 | TATTCTTACATCACCTCACACATTTAATATTCCTTA [CACACA_site4693] | 8 ± 0.62
59 | TGGTTTATTTATTAAGTGCATAAATGCAATATATAT | 10.6 ± 0.44
60 | TATTATATATTTAATAGTACATATAAAATAATAAGG [XGTACX_site4823] | 7.8 ± 0.33
61 | TATACAGATGGACACACACACATAAATAAATATATA [CACACA_site4863] | 8.04 ± 0.26
62 | TTTATTTTTAACAGTGCACACATAACTTAATTATAT [CACACA_site8681] | 10.69 ± 0.071
63 | TACTATAACCCACATACACACAAAAAAAAAAAAAAA [CACACA_site4454] | 8.29 ± 0.37
64 | CATAAAATTGTATTTTGTACACATTTTGTATACATT [XGTACX_site5705] | 7.64 ± 0.38
65 | TATATATAGAAACACACACACATATATATATATATT [CACACA_site4115] | 7.88 ± 0.46
66 | ATTTACATAAACGTCTGTACTAATATACAATTTTCT [XGTACX_site1700] | 7.79 ± 0.6

Row | Sequence | gcPBM binding intensity (ln)
67 | TATTTTATTTCAAATCTTAATAATTGTAATTCTTCA [XGTACX_negctrl_site442] | 7.08 ± 0.53
68 | TTTTAATTAGAAATCATACACACATATATATATATA [CACACA_site174] | 9.26 ± 0.33
69 | ATTTTTAAAATAAATACATGCATATATTTATATGTT [TGCATGCA_site394] | 8.06 ± 0.74
70 | TGTGTAATACATAATACACACATGTATATGTCGCAT [CACACA_site4757] | 7.83 ± 0.41
71 | AAAAAAAAAGAGGCGTGTACATATATAATTTAAATT [XGTACX_site6827] | 7.93 ± 0.71
72 | ATAATAGAAACAAACAGTACACATACCTAAAAGGAA [XGTACX_site8647] | 7.75 ± 0.49
73 | TTATTAAAGTATAACTGTACATGCGAGTAAAAGAAT [XGTACX_site7388] | 8.5 ± 0.48
74 | TGTTCTAATATTTGTTGTACATTTACATTTCTCTCT [XGTACX_site2585] | 7.99 ± 0.67
75 | TCTTATATAACGAAAGTAAAATAATATGCTAAGCAT [CACACA_negctrl_site668] | 7.49 ± 0.47
76 | TTTTTTTTTTTTGAAGTGCATGTTACGATGAACAAA [GTGCAC_site9451] | 8.72 ± 0.42
77 | CTAAAAAGAGAAGTGTGTCCTCAAATTAATATAATT [XGTACX_site1057] | 7.71 ± 0.47
78 | GAAAAAAAAAAAAATACACACAAATTGGTATAGAAT [CACACA_site380] | 7.54 ± 0.8
79 | AATGAATATTAAAGGAGTACACATAATAAGTAAGAA [XGTACX_site7354] | 8.4 ± 0.77
80 | TATATAAAAATATACACACACAAATGTATTTATATA [CACACA_site4284] | 7.44 ± 0.38
81 | AAAATAGAGTTGAATGCACACATACAAATTTTTAGG [CACACA_site9188] | 9.44 ± 0.36
82 | TTATTAAATTCTTTATTTAGCATATACAATAAAAGA [CACACA_negctrl_site1420] | 7.46 ± 0.44
83 | ATAAATAATTTATTCACACATACAAAAGTTTACAAA [CACACA_site5666] | 7.73 ± 0.4
84 | AAATATTATGTACGCACACACATTTTTGATATATAA [CACACA_site7755] | 8.57 ± 0.14
85 | CGCAACGTGAAAATACGTACACATACATTTTTATAT [XGTACX_site330] | 7.8 ± 0.41
86 | TATGGAACACACCTTAATATGTGATAAAATATGATA [GTGCAC_negctrl_site718] | 7.63 ± 0.52
87 | GTTATTAAATAATTCACACACATATATATATATATA [CACACA_site2260] | 9.48 ± 0.39
88 | TATTCCTATATACAGCGTACAAAAAATAATATGTAT [XGTACX_site8112] | 7.93 ± 0.44
